In article PMC12136788 one finds binding signal data, which are given here for 22 molecules.

B1: chr9:124878635:124878736:-|3pUTR|ENSG00000136935|msi1|total|mutant (ssRNA)
RNA: GGGAGUUCUACAGUCCGACGAUCCCAGCCAUUGAACUGGUCCCACACGCACCCCAGGCCCCACUCCUCGGCAGUUUCAGGUGCCGCUGUGGGGCCCGUUCCCCGGUCUGUACUCACUUCCGGGAGGCUUCACUGACCCGGCUUCAACAGAGGAUUGAGCAUCA
B2: chr2:201645282:201645383:-|CDS|ENSG00000082126|unk|FALSE|unique (ssRNA)
RNA: GGGAGUUCUACAGUCCGACGAUCUACUAUCCAUAUUUUUCUAUUUCUCCUAAAGGAUGAAGACCUACAAGAGAUGGAAAAUUUAGCCCAAAGAAUGGAAACUCAGUUUGGCCAAUUUUUUGAUCAUGUGAUUGUGAAUGACAGCAACAGAGGAUUGAGCAUCA
B3: chr17:50110931:50111032:+|3pUTR|ENSG00000005882|unk|total|mutant (ssRNA)
RNA: GGGAGUUCUACAGUCCGACGAUCUGUGCCCAGACAUGUGUGCUCAGGGUGGCUUUCUCCCCCGGACCUUCUGUGUAUACCGUCCGUUUUAUAACCCUGAAUGCCCCCACCCUUCCCCUAAGCACACAGGGGUUAAAGCUGUGUCAACAGAGGAUUGAGCAUCA
B4: chr2:216674221:216674322:-|3pUTR|ENSG00000115461|msi1|FALSE|unique (ssRNA)
RNA: GGGAGUUCUACAGUCCGACGAUCGCAUGCCCCAUCUCUCUGCACAGCUGUCCCCUAAACCCAACUCACGUUUCUGUAUGUCUUAGGCCAGUAUCCCAAACCUCUUCCACGUCACUGUUCUUUCCACCCAUUCUCCCUUUGCAUCAACAGAGGAUUGAGCAUCA
B5: chr5:111496093:111496242:-|3pUTR|ENSG00000164211|unk|total|mutant (ssRNA)
RNA: GGGAGUUCUACAGUCCGACGAUCUUUACAUGUACCGUUAAAUAUUAAAAUUCAUCUCUUGCAGUUCAAUAAAAGCUACCGUACCGAUUUUAUUUUUAAGAAGUUUAUAUAAUUCUUUUGUGAACCAAUAUGUAAAACCCGAAUCAACAGAGGAUUGAGCAUCA
B6: chr3:62294137:62294238:+|3pUTR|ENSG00000144724|msi1|total|mutant (ssRNA)
RNA: GGGAGUUCUACAGUCCGACGAUCUGAGACCCUUCCGUUAUUCUCCAUUAAUGCUUCUCCGUUUGUAAUACCAUACCUCACAGCCGGCCGAAGAAUGAAAACUUCUGCAGGUGUGUAAUUUUGAAACCCGUCCUCUAAAAAUUCCAACAGAGGAUUGAGCAUCA
B7: chr11:108173179:108173289:-|CDS|ENSG00000149308|unk|total|mutant (ssRNA)
RNA: GGGAGUUCUACAGUCCGACGAUCUGGUUCCAAGUCAUCAGAUUCCCGUGAAGUUCACAAGAGUAAAACCGAAAUUAAUGUGUCCGAACCAGUUAUGUCACAGCUAUCAAAUUGCCAAGAUAAUUCUUGUCUUCAAAGUGAAAUCAACAGAGGAUUGAGCAUCA
B8: ENSG00000084652:stop:overlap|stop_codon|ENSG00000084652|stop_codon|NA|stop_codon (ssRNA)
RNA: GGGAGUUCUACAGUCCGACGAUCCACCGAGCACAGAAGCAUCAGGCCAGACUGGGCCUCAAGAGCCCACCUCCGCCAGGGCCUAGAGAGCCUGGUGUUGGGUCAUGCUGGGAAGGGAGCGGCAGCCCAGCCAGGCCUGGCCCACAACAGAGGAUUGAGCAUCA
B9: chr1:119916538:119916684:-|CDS|ENSG00000134250|unk|total|mutant (ssRNA)
RNA: GGGAGUUCUACAGUCCGACGAUCAGAGACACCUCUGUUUCUUGCUGCCCGGGAGGGGAGCUAUGAAGCAGCCAAGAUCCUGUCCGACCAUUUUGCCAAUCGAGACAUCACAGACCAUAUGGAUCGUCUUCCCCGGGAUGUGGCCAACAGAGGAUUGAGCAUCA
B10: chr6:105097214:105097376:-|3pUTR|ENSG00000112276|msi1|FALSE|unique (ssRNA)
RNA: GGGAGUUCUACAGUCCGACGAUCCAUGCCUUGGUUUCCUCUCCCUUCCCUCUUUCCAAUCCUGGUUUCCUAACCUCCUCUUGUAGUAAUUCUCAACUCAACUCAAAGUCCCAAGAAUUUGGAAUGGUAGGAUGCUGUGCGGGGCAACAGAGGAUUGAGCAUCA
B11: chr8:122953881:122953982:+|CDS|ENSG00000178764|msi1|FALSE|unique (ssRNA)
RNA: GGGAGUUCUACAGUCCGACGAUCGAGUCGAGCGUUGUGGAUUACGUGGAGGUGACGGUCGGGGAGGAGGAUGCGAUCUCAGAUAGAUCAGAUAGCUGGAGUCAGGCUGCGGCAGAAGGUGUGUCGGAACUGGCUGAAUCAGACCAACAGAGGAUUGAGCAUCA
B12: chr6:137492198:137493351:-|three_prime_utr|ENSG00000177468|control|control|control (ssRNA)
RNA: GGGAGUUCUACAGUCCGACGAUCGAGAUCUCAGACUCCACUUGACCCCCGGAGGGAAAGGACCAAAAUCAAACCGCAAUUUCUAGGUGGUAGCAAAGGGGGACUCGAACCAGAUGUCGUGUGUUUUGCAUGCAUGCUUCUUUUCAACAGAGGAUUGAGCAUCA
B13: ENSG00000198589:be:win_4751|CDS|ENSG00000198589|bound_else_gene|NA|bound_elsewhere_windowed (ssRNA)
RNA: GGGAGUUCUACAGUCCGACGAUCGCACUUUAACUACGGCAUCAGUGGAAGAAUCUGAAAGCACAUCAUCUGCUCGAAGGAGGGACUCAGGCAUUGGGGAAGAAACAGCCACUGGUUUAGGAAGCCAUGUGGAAGUAACUCCUCCAACAGAGGAUUGAGCAUCA
B14: chr22:38485951:38486139:-|CDS|ENSG00000100201|unk|FALSE|bound_elsewhere (ssRNA)
RNA: GGGAGUUCUACAGUCCGACGAUCUAGUAGCACCACCUCAACUGGGAGAAGUUCACAGAGCUCUAGCCAGCAGUUUAGUGGGAUAGGCCGGUCUGGGCAGCAGCCACAGCCACUGAUGUCACAACAGUUUGCACAGCCUCCGGGCAACAGAGGAUUGAGCAUCA
B15: ENSG00000070961:be:win_1501|CDS|ENSG00000070961|bound_else_gene|NA|bound_elsewhere_windowed (ssRNA)
RNA: GGGAGUUCUACAGUCCGACGAUCCCUGAACCAGAAGCUAUUCCACCAAAUAUUUUGUCCUAUCUUGUAACAGGAAUUUCUGUGAAUUGUGCUUAUACAUCAAAAAUAUUGCCACCAGAGAAAGAGGGUGGAUUACCUCGUCACCAACAGAGGAUUGAGCAUCA
B16: ENSG00000150753:stop:overlap|stop_codon|ENSG00000150753|stop_codon|NA|stop_codon (ssRNA)
RNA: GGGAGUUCUACAGUCCGACGAUCUCAGGAUGAUGAAAUUGGAGAUGGAACCACAGGAGUGGUUGUCCUGGCUGGUGCCUUGUUAGAAGAAGCGGAGCAAUUGCUAGACCGAGGCAUUCACCCAAUCAGAAUAGCCGAUGGCUACAACAGAGGAUUGAGCAUCA
B17: chr19:4361374:4361475:-|3pUTR|ENSG00000141985|msi1|total|mutant (ssRNA)
RNA: GGGAGUUCUACAGUCCGACGAUCCAGGACCCCACACUUGGGUGGGGGGGCUUAUCUGGGUGGGUGGGGAUGCCUGUUUACACCCGCGCUGACUCCCAACGGUGACGGCUCCCUUCCCCACUCCAUGGCGCCAGCCUCCUCCCCCAACAGAGGAUUGAGCAUCA
B18: chr7:76328962:76329048:-|3pUTR|ENSG00000170027|msi1_unk|FALSE|overlapping (ssRNA)
RNA: GGGAGUUCUACAGUCCGACGAUCACCUGAGGUCUCAUUCAUCCUUAUGGUUUAGGCCUUGCCAGUUUUCCGAAGUCUCUGAUUAGUUGACAGUAUUAACACUAAAUUGCAGUUUACAGUAUUUCUACAUUACAGCCAUAUGUACAACAGAGGAUUGAGCAUCA
B19: chr5:150649000:150649101:+|CDS|ENSG00000171992|msi1|FALSE|bound_elsewhere (ssRNA)
RNA: GGGAGUUCUACAGUCCGACGAUCCAGGCCUUUUGGGAUCCAGGCGCCAGGGGGCACCAGCCAGAUGGAGAGGAGCCCCAUGCUAGAGAGACGACAUUUUGGGGAGAAGGCCCCGGCUCCCCAGCCCCCCAGUUUGCCAGACAGCAACAGAGGAUUGAGCAUCA
B20: chr20:37404728:37404829:+|3pUTR|ENSG00000197122|msi1|FALSE|unique (ssRNA)
RNA: GGGAGUUCUACAGUCCGACGAUCGGCCUCUGCAACUGCUCAGCUCUGGUCCAGGCCCUGUGGCAGGACACACAUGGUGAGCCUAGCCCUGGGACAUCAGGAGACUGGGCUCUGGCUCUGUUCGGCCUUUGGGUGUGUGGUGGACAACAGAGGAUUGAGCAUCA
B21: chr10:68791452:68791550:+|3pUTR|ENSG00000060339|msi1_unk|FALSE|overlapping (ssRNA)
RNA: GGGAGUUCUACAGUCCGACGAUCCUAGCCUUCAAAUUAUUAAACACUCCUUGAGUGAAAUAAUUUUGCAUUGCAAAGUGUUUUAGGAUGAACUUUGUUAUAGUUUUAACUCCAAUAAAGUUCAUCAGUUUAAUUGACUGUAGUCAACAGAGGAUUGAGCAUCA
B22: chr9:128810308:128810409:+|3pUTR|ENSG00000107021|unk|total|mutant (ssRNA)
RNA: GGGAGUUCUACAGUCCGACGAUCUACAGAUUGAGCUGUAUGAAUUCAGCGGGUCUCACUCCAGAGGGUCAGAACGUUUGCUUCCGUUUUUUCAUCUGUUUUGUUCCUUGAGUCAGUGCUGUUGAUGACGAGUUGUCUUGAAUACAACAGAGGAUUGAGCAUCA

This is one part of the list.

In this assay the target is MSI1 full-length (mouse, UniProt Q61474 1-362). Kind of assay: nsRBNS (natural sequence RNA bind-n-seq); RBNS binding buffer (assumed for nsRBNS): 25 mM Tris pH 7.5, 150 mM KCl, 3 mM MgCl2, 0.01% Triton X-100, 500 ug/ml BSA, 20 U/ml SUPERase-In, 4 C; UNK is unkempt and MSI1 is Musashi-1; names of the RNAs are library labels; protein concentration not given here; high values mean tight binding.
Chain of UniProt Q61474 (Q61474 whole entry): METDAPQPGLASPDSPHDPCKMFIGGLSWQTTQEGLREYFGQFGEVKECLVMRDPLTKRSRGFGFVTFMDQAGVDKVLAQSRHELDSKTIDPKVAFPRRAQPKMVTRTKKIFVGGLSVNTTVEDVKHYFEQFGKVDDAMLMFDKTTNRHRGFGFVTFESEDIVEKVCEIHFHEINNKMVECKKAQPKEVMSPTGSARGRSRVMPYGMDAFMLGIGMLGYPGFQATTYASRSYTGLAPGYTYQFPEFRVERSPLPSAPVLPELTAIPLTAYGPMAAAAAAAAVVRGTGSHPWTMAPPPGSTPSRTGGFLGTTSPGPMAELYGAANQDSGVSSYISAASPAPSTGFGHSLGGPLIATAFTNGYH
Regarding B1, the binding signal worked out at 0.386 enrichment R.

B2 gave a binding signal of 0.512 enrichment R.

For B3, the binding signal was found to be 0.524 enrichment R.

The molecule B4 returned a binding signal of 0.888 enrichment R.

On to B5, for which the binding signal is 3.85 enrichment R.

Regarding B6, the binding signal came to 0.604 enrichment R.

In turn, B7 displayed a binding signal of 0.203 enrichment R.

The molecule B8 gave a binding signal of 0.587 enrichment R.

Regarding B9, the binding signal came to 0.446 enrichment R.

B10 returned a binding signal of 0.653 enrichment R.

In turn, B11 yielded a binding signal of 0.739 enrichment R.

As for B12, the binding signal was 0.62 enrichment R.

B13 yielded a binding signal of 0.366 enrichment R.

For B14, the binding signal stood at 0.588 enrichment R.

Consider B15, for which the binding signal was 0.511 enrichment R.

In turn, B16 returned a binding signal of 0.662 enrichment R.

On to B17, for which the binding signal worked out at 0.42 enrichment R.

In the case of B18, the binding signal was found to be 3.16 enrichment R.

For B19, the binding signal came out at 0.703 enrichment R.

In turn, B20 yielded a binding signal of 0.357 enrichment R.

The molecule B21 yielded a binding signal of 0.703 enrichment R.

B22 gave a binding signal of 0.321 enrichment R.
